# Laboratory results from paper PMC4336329 (PLoS ONE, 2015).
# The campaign covered roughly 310,000 compounds. About 2,200 (0.71%) showed an effect of 50% or more. The effect is printed as a negative number. The list shows a part of the results.
# Biological target: human ether-à-go-go-related gene (hERG) potassium channel (human, UniProt Q12809)
# Assay: primary screen, population patch clamp on CHO cells stably expressing hERG
# Sequence of human ether-à-go-go-related gene (hERG) potassium channel (Q12809 whole entry, looked up): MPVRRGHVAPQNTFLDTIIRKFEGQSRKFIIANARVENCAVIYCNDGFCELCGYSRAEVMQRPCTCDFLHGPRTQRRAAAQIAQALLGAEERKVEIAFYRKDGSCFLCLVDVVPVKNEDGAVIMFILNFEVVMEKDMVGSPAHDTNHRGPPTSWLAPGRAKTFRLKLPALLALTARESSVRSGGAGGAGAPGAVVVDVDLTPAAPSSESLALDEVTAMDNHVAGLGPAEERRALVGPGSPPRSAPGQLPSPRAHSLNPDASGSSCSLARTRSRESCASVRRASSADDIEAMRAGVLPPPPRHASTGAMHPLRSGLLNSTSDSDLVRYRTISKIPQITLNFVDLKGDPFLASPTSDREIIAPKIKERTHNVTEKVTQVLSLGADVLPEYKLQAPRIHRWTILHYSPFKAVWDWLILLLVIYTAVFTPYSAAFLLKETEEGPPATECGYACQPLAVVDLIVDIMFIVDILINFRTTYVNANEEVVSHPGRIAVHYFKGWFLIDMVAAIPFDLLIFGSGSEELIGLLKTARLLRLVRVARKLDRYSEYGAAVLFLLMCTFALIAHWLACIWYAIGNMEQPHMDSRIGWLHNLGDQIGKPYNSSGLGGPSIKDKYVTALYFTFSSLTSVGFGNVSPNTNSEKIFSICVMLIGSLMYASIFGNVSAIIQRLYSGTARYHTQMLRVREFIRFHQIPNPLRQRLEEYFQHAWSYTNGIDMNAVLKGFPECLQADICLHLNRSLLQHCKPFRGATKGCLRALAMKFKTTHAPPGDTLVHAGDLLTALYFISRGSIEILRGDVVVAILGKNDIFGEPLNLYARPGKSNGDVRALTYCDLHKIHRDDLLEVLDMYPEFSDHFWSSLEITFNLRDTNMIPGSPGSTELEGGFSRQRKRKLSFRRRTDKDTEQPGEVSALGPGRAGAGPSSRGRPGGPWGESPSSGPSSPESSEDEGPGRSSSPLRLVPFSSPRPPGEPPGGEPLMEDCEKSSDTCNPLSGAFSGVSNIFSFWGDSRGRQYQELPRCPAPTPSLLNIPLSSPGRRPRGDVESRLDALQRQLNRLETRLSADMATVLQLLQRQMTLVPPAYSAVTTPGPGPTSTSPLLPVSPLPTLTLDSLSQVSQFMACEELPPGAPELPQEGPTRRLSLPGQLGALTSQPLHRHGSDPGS
row,SMILES,"hERG current change (%, negative = inhibition) at 1uM [%]"
1,COc1c2ccoc2nc2c(OC)c(O)ccc12,14.6
2,Cc1cccc(NS(=O)(=O)c2cc(C(=O)OCC(=O)Nc3cc(C)on3)ccc2C)c1,5.22
3,CCOC(=O)c1cc(-c2ccccc2)nn1Cc1cc(CC)no1,14.8
4,CC(Oc1ccccc1F)C(=O)NNC(=O)CC(C)c1ccccc1 (stereo not drawn),12.4
5,O=C(O)CC(CC(=O)Nc1ccc(F)c(Cl)c1)c1ccc(Cl)cc1Cl (stereo not drawn),11.4
6,Cc1ccc(CSc2nc3c(c(=O)[nH]2)CCC3)cc1,6.41
7,Cc1ccc(C)c(NC(=S)Nc2ccc(S(=O)(=O)Nc3ncccn3)cc2)c1,8.01
8,O=C(Nc1nnc(-c2ccco2)s1)C1CCN(S(=O)(=O)c2ccc(Cl)cc2)CC1,9.86
9,CCn1c(NC(=O)C(C)C)c2ccccc2nc1=O,2.18
10,O=C1CCCN1c1ccc(S(=O)(=O)NCc2ccco2)cc1,1.5
11,CCOc1ccc(C(=O)Nc2cccc(-c3ccc4nncn4n3)c2)cc1,14.7
12,COc1cc(-c2cc(C(=O)Nc3cccc(S(=O)(=O)N(C)C)c3)c3ccccc3n2)cc(OC)c1OC,8.12
13,Cc1ccc(NC(=O)CCc2nc3ccccc3[nH]2)cc1C,5.46
14,CCOc1cc(C2C3=C(CCCC3=O)N(CC(=O)O)C3=C2C(=O)CCC3)ccc1OC,16.6
15,COc1ccc(NC(=O)Nc2c(C)n(C)n(-c3ccccc3)c2=O)cc1OC,10.3
16,Cc1ccc(NNC(N)=S)cc1Cl,4.71
17,COc1ccccc1C(CNC(=O)c1cccc(NS(=O)(=O)c2ccc(C)c(F)c2)c1)N1CCCC1 (stereo not drawn),-4.1
18,COc1cccc(/C=N/n2c(C3CCCCC3)n[nH]c2=S)c1OC,11.3
19,O=Nc1c(O)n(Cc2c(Cl)cccc2Cl)c2ccccc12,16.4

row,SMILES,"hERG current change (%, negative = inhibition) at 1uM [%]"
1,Cc1ccc(-c2nc(C(=O)NCCCN3CCOCC3)cc3c2[nH]c2ccccc23)cc1,9.98
2,Cc1ccnc(NCc2ccc(Cl)cc2)c1,15.2
3,N#Cc1ccc(OCC(=O)N/N=C2/CC(c3ccccc3)Oc3ccccc32)cc1 (stereo not drawn),16.1
4,O=C1CCCN1c1ccc(S(=O)(=O)N2CCC(c3ccccc3)CC2)cc1,8.8
5,Cc1cc(NC(=O)c2ccccc2)nc(C)n1,7.23
6,Cc1ccccc1C(C(=O)NC1CCCCC1)N(C(=O)CNC(=O)c1ccco1)c1cccnc1 (stereo not drawn),17
7,COc1ccccc1CNC(=O)C1CCC(=O)N1C(C)C (stereo not drawn),14.7
8,Cc1ccc(C23CC4CC(CC(C(=O)N(C)C)(C4)C2)C3)cc1,0.105
9,CC(=O)c1cccc(N(CC(=O)NC2CCCC2)C(=O)c2ccc(C)s2)c1,3.73
10,Cc1cccc(CN2CCN(c3nc4nonc4nc3NC3CC3)CC2)c1,14
11,CN(C)C1(CNC(=O)c2cccc(S(=O)(=O)Nc3ccc(Br)cc3)c2)CCCCC1,-0.758
12,CCN1CCCC1CNC(=O)Cn1cccc1C(=O)c1ccccc1C (stereo not drawn),-18.5
13,Cn1ccnc1P(=S)(c1nccn1C)c1nccn1C,3.82
14,S=C(NCCc1ccc(Cl)cc1)NCc1ccccc1,13.2
15,CC(C)COc1ccc(C(=O)NC(=S)Nc2ccc(CN3CCOCC3)cc2)cc1,2.89
16,CCc1ccc(NC(=O)c2c(Cl)nc(C)c(Cl)c2C)cc1,4.46
17,CN(CCC#N)C(=O)COC(=O)c1ccc(CNS(=O)(=O)c2ccc(F)c(Cl)c2)cc1,-2.53
18,O=C(c1cccc(C(F)(F)F)c1)N1CCC(O)(CS(=O)(=O)Cc2ccccc2)CC1,5.69
19,O=C(CNC(=O)c1ccncc1)N/N=C/c1cc(Br)ccc1O,-14.1

row,SMILES,"hERG current change (%, negative = inhibition) at 1uM [%]"
1,Cc1[nH]nc2oc(=O)c(CCO)c(C)c12,5.3
2,CC(C)c1ccc(C2/C(=C(/O)c3ccccc3)C(=O)C(=O)N2CCCN2CCOCC2)cc1 (stereo not drawn),19.6
3,CCOc1ccccc1NS(=O)(=O)c1cn(C)c(=O)n(C)c1=O,9.1
4,CS(=O)(=O)N(CC(=O)N1CCN(c2ccccc2F)CC1)C1CCCCC1,12.8
5,O=C(NCCCc1ccccc1)c1cc(COc2ccc(F)cc2Cl)on1,13.9
6,COc1ccc(S(=O)(=O)N2CCCC(C(=O)NCc3ccco3)C2)cc1OC (stereo not drawn),16
7,Cc1ccc(-n2cc(-c3ccccc3)[nH]c2=O)cc1F,5.72
8,O=C(Nc1ccccc1-c1nc2ccccc2s1)c1cccnc1,11.5
9,CCCn1c(CNc2ccc(Br)cc2)nc2ccccc21,18
10,Cl.NC1=NC2(CCCCC2)N=C(Nc2ccc(Br)cc2)N1,17.3
11,N#CCCN(Cc1cccnc1)C(=S)NC(=O)c1ccco1,11.8
12,O=C(NC(Cc1c[nH]c2ccccc12)C(=O)O)c1ccco1 (stereo not drawn),4.33
13,c1ccc(-c2cc(-c3nn4c(-c5ccco5)nnc4s3)c3ccccc3n2)cc1,-0.16
14,NC(=O)C1Cc2ccccc2CN1C(=O)c1cccc(Oc2ccccc2)c1 (stereo not drawn),10.8
15,CCN(CC)CCNC(=S)Nc1ccc2nc(N3CCN(C)CC3)cc(C)c2c1,10.8
16,Cc1ccccc1N1CC(C(=O)N2CCc3ccccc32)CC1=O (stereo not drawn),8.45
17,Cc1nc(SCC(=O)N2CCOCC2)c2c(C)c(C)sc2n1,5.62
18,CCOC(=O)c1cnc(SC)nc1Sc1cc(Cl)ccc1Cl,7.06
19,O=Cc1c(Sc2ccccn2)nc2ccccn2c1=O,-2.15
